According to the supplement of paper PMC12645437, “Orthogonal IMiD-Degron Pairs Induce Selective Protein Degradation in Cells” (ACS Chemical Biology, 2025):
Some of the results follow.

The sequences below were run against no compound (DMSO) (assay: log2 fold change of degron read counts, EGFP-low vs EGFP+ sorted cells; higher = lower degron-EGFP level without compound (poor expression or instability)). Conditions: compound: DMSO control; 18 h.
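Further: jurkat cells carrying a lentiviral library of mutant zinc finger degrons fused to EGFP plus mCherry, mCherry+ cells FACS sorted, degron abundance counted by next-generation sequencing.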

| Sequence | log2 fold change of degron read counts |
| --- | --- |
| FVCDQCGAWFTQKGNLLRHIKL | -0.12 |
| FRCDICGAPFTQKGNLLRHIKL | -0.286 |
| FKCNQCGANFTQKGNLLRHIKL | -1.49 |
| FHCEQCGATFTQKGNLLRHIKL | -1.75 |
| FACEICGHEFTQKGNLLRHIKL | -1.6 |
| FQCDICGAIFTQKGNLLRHIKL | -0.376 |
| FFCPVCGACFTQKGNLLRHIKL | 0.432 |
| FMCDICGACFTQKGNLLRHIKL | -1.24 |
| FTCDVCGAIFTQKGNLLRHIKL | -1.08 |
| FKCNVCGAFFTQKGNLLRHIKL | -0.0634 |
| FACEICGAPFTQKGNLLRHIKL | -0.552 |
| FLCPICGHHFTQKGNLLRHIKL | 0.0486 |
| FKCNQCGAYFTQKGNLLRHIKL | -0.76 |
| LICPICGFMCTQKGNLLRHIKL | 1.4 |
| FGCPQCGAWFTQKGNLLRHIKL | 0.276 |
| FFCPQCGAIFTQKGNLLRHIKL | 1.28 |
| FLCNQCGHRFTQKGNLLRHIKL | -0.311 |
| LQCNQCGFVCTQKGNLLRHIKL | 0.215 |
| FQCNQCGRCFTQKGNLLRHIKL | -1.02 |
| FNCNQCGAFFTQKGNLLRHIKL | 0.7 |
| FHCEVCGAFFTQKGNLLRHIKL | 0.0174 |
| FKCEQCGAMFTQKGNLLRHIKL | -2.67 |
| FNCNQCGALFTQKGNLLRHIKL | 0.253 |
| FSCEVCGAMFTQKGNLLRHIKL | -1.52 |
| FVCDICGACFTQKGNLLRHIKL | -1.83 |

| Sequence | log2 fold change of degron read counts |
| --- | --- |
| FACEICGREFTQKGNLLRHIKL | -2.62 |
| FYCDICGAEFTQKGNLLRHIKL | -2.15 |
| FMCPICGACFTQKGNLLRHIKL | -0.393 |
| LECPICGFECTQKGNLLRHIKL | -0.204 |
| FYCEVCGAEFTQKGNLLRHIKL | -1.84 |
| FLCDICGANFTQKGNLLRHIKL | -0.796 |
| FNCNICGAAFTQKGNLLRHIKL | -0.982 |
| FYCEICGACFTQKGNLLRHIKL | -1.05 |
| FYCEICGHFFTQKGNLLRHIKL | 0.363 |
| FNCDVCGAEFTQKGNLLRHIKL | -2.05 |
| FDCNQCGHAFTQKGNLLRHIKL | 0.279 |
| FDCEICGREFTQKGNLLRHIKL | -1.03 |
| FFCPICGAIFTQKGNLLRHIKL | 0.929 |
| FTCEVCGACFTQKGNLLRHIKL | -1.38 |
| FDCDQCGAMFTQKGNLLRHIKL | -0.0848 |
| FECNVCGAWFTQKGNLLRHIKL | -0.81 |
| FKCNICGAVFTQKGNLLRHIKL | -0.629 |
| FWCPICGHHFTQKGNLLRHIKL | 1.34 |
| FHCEQCGACFTQKGNLLRHIKL | -1.47 |
| FSCSVCGHLFTQKGNLLRHIKL | 0.309 |
| FTCEICGAKFTQKGNLLRHIKL | -1.54 |
| LWCPICGFYCTQKGNLLRHIKL | 3.49 |
| FTCEQCGAHFTQKGNLLRHIKL | -1.16 |
| FTCPVCGALFTQKGNLLRHIKL | -0.191 |
| FDCEICGHVFTQKGNLLRHIKL | -0.33 |
